Laboratory results as given in PMC12136788.
Where a chain is given by its changes, count along the chain named. The list shows a part of the results.

T1: UNK ZnF1-3 (human, UniProt Q9C0B0 31-174)
T1 sequence: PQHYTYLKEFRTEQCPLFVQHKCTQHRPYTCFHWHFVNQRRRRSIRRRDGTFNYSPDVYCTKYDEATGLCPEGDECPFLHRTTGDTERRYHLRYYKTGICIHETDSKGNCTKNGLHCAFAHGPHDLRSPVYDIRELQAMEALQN

B1: chr1:39494564:39494565:+_ENSG00000168653_ENST00000372967|hu_hu|hu_hu_hu_mus_True|58_88 (ssRNA)
RNA: GGGAGUUCUACAGUCCGACGAUCAUGCAUUCGCCUCAUCGUUUUGUGCCGAAGCAAGCACUCUUCGAAGUCAUCGAAUUCUAUCUUGCACUCCUUUUUCGCCCGGGUCCCACCGAUCCCGUGUGCACACUCUAUCCACUCUUUCAACAGAGGAUUGAGCAUCA
B2: chr12:39756943:39756944:-_ENSG00000139116_ENST00000544797|hu_mus|hu_hu_hu_mus_False|1_1 (ssRNA)
RNA: GGGAGUUCUACAGUCCGACGAUCGGUUUGGCUGUUACCCCCAAGGGAAUCCUGCAAGAGUCUUGUCAGCUUAGAGUCUCUGUAAGGGACAUGGGUGGCUCUCUUGCUCUUGUCCCCCAAGGCGCUGAUUACAUUCCCAAGUGCCAACAGAGGAUUGAGCAUCA
B3: chr12:39756943:39756944:-_ENSG00000139116_ENST00000544797|hu_mus|hu_hu_hu_mus_False|48_68 (ssRNA)
RNA: B2 RNA with A72G, G75A, G93U, U141A
B4: 148938904_148939024_1092_3pUTR_ENSMUSG00000028988_ENSMUST00000030839|mouse|control|control (ssRNA)
RNA: GGGAGUUCUACAGUCCGACGAUCGGAAACCAAACCCGCAUCUUACUGCCAAUCAAAUCCAAACACAAACCCACUACGUGAAGGCAGCAGCCAGCUCUUUGUGUAAUAAAUAUUGCAAAGCUCACUUCAUUUCUUUCUUUCUUUCAACAGAGGAUUGAGCAUCA
B5: chr10:112343607:112343608:+_ENSG00000108055_ENST00000361804|hu_mus|FALSE|FALSE (ssRNA)
RNA: GGGAGUUCUACAGUCCGACGAUCUUCUAUUUUUUCAAGCAGCUUCUGCCUCUCUUUUAAUAAACGUUUCCGCUGUUCACUGUUGCCCGCCAGCUCAUCUUGUAAAUCCUUGGCUUUAAGCUCCAACUUGGUCCUUUGCUUAAUCAACAGAGGAUUGAGCAUCA
B6: chr4:141302222:141302223:+_ENSG00000153130_ENST00000394201|hu_mus|motif|central (ssRNA)
RNA: GGGAGUUCUACAGUCCGACGAUCCCUUUUGCUUUUUGUAUCAGUUGUUUGAAAAACACUAGAAGCAGACAUGAGGUUUUCGGUAUAUUGUCCGAGAACUUGAUUUUCCGACUUUAGCUUCAGAUUUUCUUCCUUAACUGCAUCCAACAGAGGAUUGAGCAUCA
B7: chr8:117878989:117878990:-_ENSG00000164754_ENST00000297338|hu_hu|hu_hu_hu_mus_True|18_68 (ssRNA)
RNA: GGGAGUUCUACAGUCCGACGAUCCCAGAGGCCCUCGUUUACUGAGGACAAAAUGUGCGUAGAACAUUGUUCUGGCUUGCUAUGAAAUAAGAAGAAACCUGGAUCUCGGCGGGGAGCUUGGGCGGGCGGGUGGCCCGGGGAGGGCAACAGAGGAUUGAGCAUCA
B8: chr3:95657547:95657548:-_ENSMUSG00000015748_ENSMUST00000015892|mus_mus|FALSE|FALSE (ssRNA)
RNA: GGGAGUUCUACAGUCCGACGAUCUUAGACAGCGCCAUUUCGGAGAAAAUGGAGAAUGAGAGCUCCAAUGGGACAAAAAAACUACACCUCACAAACUUCAGCCCCUGAGACGGAGCCCGAACGUUACACCGGAACCGGAAACCUCAACAGAGGAUUGAGCAUCA
B9: 49196445_49197903_1304_3pUTR_ENSG00000196396_ENST00000371621|human|control|control (ssRNA)
RNA: GGGAGUUCUACAGUCCGACGAUCUUCUCGGGCAGUGACGGCUCCCCUUUGGCUGGGGAGGCAGCCUGGGCACCUCGAAGACUUCCCCCCACGACCCGACUUCUAACUUCAGUGUCUUGACUCAUGCUUUCGAUGCCGUAGGGUCAACAGAGGAUUGAGCAUCA
B10: chr1:39494564:39494565:+_ENSG00000168653_ENST00000372967|hu_hu|hu_hu_hu_mus_True|8_28 (ssRNA)
RNA: B1 RNA with G47A, U78C, C108A, C109U, C110A, C129U
B11: chr12:104381838:104381839:+_ENSG00000139372_ENST00000392872|hu_mus|motif|central (ssRNA)
RNA: GGGAGUUCUACAGUCCGACGAUCCAGUAAUCAACAGUAGUGACAAUAAUUUUUAAAUCAUUGACAAAUGAUUAGCUUUCCCGGGAAGAGAAGUUCUGUAUCAGUACAUCCCAUGUACACAGCACCAGUUUAAACAGGAUUAUCCAACAGAGGAUUGAGCAUCA
B12: 216248192_216248848_5114_CDS_ENSG00000115414_ENST00000323926|human|control|control (ssRNA)
RNA: GGGAGUUCUACAGUCCGACGAUCUGGUUUGUCAAUUUCUGUUCGGUAAUUAAUGGAAAUUGGCUUGCUGCUUGCGGGGCUGUCUCCACGGCCAGUGACAGCAUACACAGUGAUGGUAUAAUCAACUCCAGGUUUAAGGCCGCUCAACAGAGGAUUGAGCAUCA
B13: chr13:104551264:104551265:-_ENSMUSG00000032621_ENSMUST00000074616|mus_hu|FALSE|FALSE (ssRNA)
RNA: GGGAGUUCUACAGUCCGACGAUCUCCAAGUGUUGCAAUGUUGGGGUCUAGUGCUGCUGCUGGUAUAGCUCCCAAACUGCUAAGUGAAACACCAAGAGUAGUCAAAGGAUUUGGGGUCGGUAUUGGAAGCAAUCCUGCACCAGGCAACAGAGGAUUGAGCAUCA
B14: chr7:112757510:112757511:-_ENSG00000214194_ENST00000397764|hu_hu|FALSE|FALSE (ssRNA)
RNA: GGGAGUUCUACAGUCCGACGAUCUUUUCGUGCAUAUACCCCCAAGCAGGCACAAAUGCCUGUAAUGCUGAGAACCACACCUAACAAAAGGGCGAUUGCAUCACCGGCUUCUACUGCUUCCACAACAGGCAGCACCAAAAGCAGCAACAGAGGAUUGAGCAUCA

Each binder was assayed against T1, UNK ZnF1-3 (assay: nsRBNS (natural sequence RNA bind-n-seq); RBNS binding buffer (assumed for nsRBNS): 25 mM Tris pH 7.5, 150 mM KCl, 3 mM MgCl2, 0.01% Triton X-100, 500 ug/ml BSA, 20 U/ml SUPERase-In, 4 C; UNK is unkempt and MSI1 is Musashi-1; names of the RNAs are library labels; protein concentration not given here; high values mean tight binding).

Binder | binding signal [enrichment R]
B1 | 0.633
B2 | 0.624
B3 | 0.719
B4 | 1.58
B5 | 0.317
B6 | 0.531
B7 | 0.82
B8 | 1.64
B9 | 0.605
B10 | 0.589
B11 | 1.25
B12 | 0.679
B13 | 0.939
B14 | 0.947
